The values that follow come from patent US20240101686A1 (SIMCERE ZAIMING PHARMACEUTICAL, published 2024).

Usually EC50 stands for the concentration giving half of the maximal effect. For orientation: Kd means the free concentration of one partner at which half of the binding sites on the other are occupied at equilibrium, for simple one-to-one binding. As a reminder, the koff is a measure of how fast the partners let go of each other. In general, kon refers to the rate constant with which the complex forms. One may read the EC80 as the point of the concentration-response curve where the effect stands at 80%.

Like-named read-outs stand apart in the source and are kept apart here.

Experiment [1] addresses T1, human EGFR endogenously expressed on A431 cells (human, UniProt P00533).
T1 construct: whole, on cells

Experiment [2] deals with T2, cynomolgus monkey EGFR on HEK293T-monkey EGFR cells (cynomolgus monkey, UniProt P55245 (rhesus entry)). Nature of the experiment: FACS, HEK293T-monkey EGFR cells. On the technique in general: A flow cytometer gives signals particle by particle.
Experiment [3] has as its target T3, monkey EGFR protein (commercial, SB, catalog number 90285-C08H) (monkey).
T3 construct: Bought protein used to coat ELISA plates
The experiment can be described thus: ELISA, coated monkey EGFR protein, antibody 1 nM. (In general: In an ELISA, binding on a coated surface is turned into a signal by an enzyme label.)

For experiment [4], the target named is T3, monkey EGFR protein (commercial, SB, …). The experiment can be described thus: ELISA, coated monkey EGFR protein, antibody 10 nM.
Experiment [5] shares this target. The experiment can be described thus: ELISA, coated monkey EGFR protein, antibody 0.1 nM.
The target is the same in experiment [6]. The experiment can be described thus: ELISA, coated monkey EGFR protein, antibody 100 nM.
Experiment [7] shares this target. Nature of the experiment: ELISA, coated monkey EGFR protein, antibody 0.01 nM.
Experiment [8] deals with T2, cynomolgus monkey EGFR on …. Nature of the experiment: FACS, HEK293T-monkey EGFR cells (specificity assay).
Experiment [9] deals with T3, monkey EGFR protein (commercial, SB, …). The experiment can be described thus: ELISA, coated monkey EGFR protein, antibody 0.001 nM.
The target is the same in experiment [10]. The experiment can be described thus: ELISA, coated monkey EGFR protein, antibody 0.0001 nM.
Experiment [11] shares this target. Nature of the experiment: ELISA, coated monkey EGFR protein, antibody 0 nM (blank).
Experiment [12] concerns the target T4, Her2 protein (human, UniProt P04626 part only).
T4 construct: Bought protein; also called human Her2 protein

For experiment [13], the target named is T4, Her2 protein. This is another data set of the same source.
For experiment [14], the target named is T4, Her2 protein. This is another data set of the same source.
Experiment [15] has as its target T4, Her2 protein. The source holds these as a separate data set.
Experiment [16] deals with T4, Her2 protein. This is another data set of the same source.
Experiment [17] concerns the target T4, Her2 protein. This is another data set of the same source.
For experiment [18], the target named is T4, Her2 protein. The source holds these as a separate data set.
Experiment [19] has as its target T4, Her2 protein. The source holds these as a separate data set.
Another experiment deals with T5, murine EGFR protein (murine, UniProt Q01279 25-647).
T5 construct: Bought protein

Experiment [20] deals with T6, human EGFR protein (human, UniProt P00533 part only).
T6 construct: also called human EGFR-His; human EGFR-ECD protein; not shown: His tag

The target of the next experiment is T7, monkey EGFR protein (cynomolgus monkey, UniProt P55245 part only (rhesus entry)).
T7 construct: Bought protein (SB 90285-C08H); also called cynomolgus monkey EGFR

The target of experiment [21] is T8, human EGFRvIII-His tag protein (human, UniProt P00533 part only).
T8 construct: Made in HEK293E, purified on nickel column; also called human EGFRvIII protein; not shown: His tag

Experiment [22] deals with T6, human EGFR protein. The source holds these as a separate data set.

B1: S008-NB149-12 VHH-Fc antibody (Fc fusion)
chain: QVQLVESGGGLVQPGGSLRLSCVVSESISVINAMTWYRQAPGKQRELVALISRGGSTNYADSVKGRFTISRDNAKNSVYLQMNSLKPEDTALYYCNVVPPLGSWGQGTQVTVSS[human IgG1 Fc with changes not shown]
notes: VHH fused to human IgG1 hinge and Fc
As for B1, the Max_MFI in experiment [1] turned out to be 15700; in experiment [8] it was 7540. The molecule further returned an EC50 in [2] of 8.87 nM. For the same molecule, in experiment [2], the “Max MFI” value came to 18900. The OD450 in experiment [3] came out at 2.04; in experiment [4], 2.19; in [5], 1.6; in [6] it was 2.21; in experiment [7] it was 0.54; in experiment [9] it was 0.09. Besides, the OD450 in [10] and in [11] was 0.04 in each case.

B2: S008-NB149-9 VHH-Fc antibody (Fc fusion)
chain: QVQLVESGGFVQAGGSLRLSCAASGRTFSKYAMGWFRQAPGKEREFVAAIRWIGGSTYYADSVKGRFTISRDNDKNTLYLQMNSLKPEDTAVYYCAAGYQAYPEPPWEYDYWGQGTQVTVSS[human IgG1 Fc with changes not shown]
notes: as for B1
B2: the Max_MFI in experiment [1] is 11200; in [8] it was 5170. It took 0.57 nM to reach a half-maximal effect in [2] (EC50). Moreover, in experiment [2], the “Max MFI” value stood at 8960. In addition, the OD450 in [3] was 1.95; in [4], 2.15; in experiment [5], 1.55; in experiment [6] it was 2.19; in experiment [7], 0.45; in experiment [9] it was 0.11. For the same molecule, the results for the OD450 in [10] and in experiment [11] were 0.06 and 0.12, respectively.

B3: S008-NB149-15 VHH-Fc antibody (Fc fusion)
chain: QLQLVESGGGLVRPGGSLRLSCAASGSIFSRSGATWYRQAPGKQRELVALLTRDGHTDYPVVSVKGRFTISKDNAKNTVYLQMNSLQPEDTAVYYCNAIPPLGSWGRGTQVTVSS[human IgG1 Fc with changes not shown]
notes: as for B1
As for B3, the Max_MFI in [1] worked out at 14900; in experiment [8], 10500. This molecule came in with an EC50 in experiment [2] of 3.89 nM. Besides, the “Max MFI” value in [2] came out at 19200. Besides, the OD450 in [3] amounted to 2.13; in experiment [4] it was 2.31; in experiment [5] it was 1.95; in experiment [6], 2.44; in [7], 0.89; in [9], 0.21. Besides, the OD450 in experiment [10] worked out at 0.09; in experiment [11], 0.08.

B4: S008-NB149-22 VHH-Fc antibody (Fc fusion)
chain: QVQLVESGGGLVQAGGSLRLSCVASGRFPSIYRMAWFRQAPGKERDFVAAINWGGTATYYEDSVKGRFTISRDNTKNTVWLQMNSLKPEDTAVYYCAAGTGTTYTPQRGDAYGYWGQGTQVTVSS[human IgG1 Fc with changes not shown]
notes: as for B1
Turning to B4, the Max_MFI in [1] stood at 8850; in [8], 6370. Also, the “Max MFI” value in experiment [2] is 9270. Also, the OD450 turned out to be 1.88 in [3]; 2.26 in experiment [4]; 1.37 in experiment [5]; 2.3 in experiment [6]; 0.36 in experiment [7]; 0.07 in experiment [9]. The OD450 in experiment [10] and in experiment [11] was 0.04 in each case.

B5: S008-NB149-64 (Fc fusion)
chain: EVQVVESGGGLVQPGGSLRLSCVASGIIFSSYAMGWYRQAPGKQRELVARISSGGGLYYEDPVKGRFTISRDNARNTVYLQMSSVKPEDTAVYYCNVVPYTPGYWGQGTQVTVSS[human IgG1 Fc with changes not shown]
notes: Tested as VHH-Fc; order VHH-hinge-Fc inferred
In the case of B5, the OD450 with Her2 protein [12] is 0.07; with Her2 protein [13], 0.09; with Her2 protein [14], 0.07; in the experiment with Her2 protein [15] it was 0.17; in the experiment with Her2 protein [16] it was 0.15; with Her2 protein [17], 0.08. Also, the OD450 with Her2 protein [18] stood at 0.13; in the experiment with Her2 protein [19] it was 0.17. Further, the dissociation constant (Kd) with murine EGFR protein is 0.959 nM. Further, in the experiment with murine EGFR protein, the koff worked out at 0.000101 s⁻¹. Also, the kon with murine EGFR protein amounted to 105000 M⁻¹ s⁻¹.

B6: S008-NB148-9 VHH-Fc antibody (Fc fusion)
chain: EVQLVESGGGLVQAGGSLRLSCAASGSTLSSYAMGWYRQAPGKQRELVAAISSGGGSTNYRDSVKGRFTISRDNAKNTVYLQMNSLKPEDTAVYYCKSTDYGSLFDSWGQGTQVTVSS[human IgG1 Fc with changes not shown]
notes: as for B1
Take B6: the Max_MFI turned out to be 12700 in experiment [1] and 4170 in experiment [8]. In experiment [2], this molecule had an EC50 of 20.1 nM. In addition, the “Max MFI” value in [2] was 2900. Also, the OD450 in experiment [3] is 2.19; in experiment [4] it was 2.5; in experiment [5] it was 1.42; in experiment [6], 2.67; in experiment [7], 0.22; in experiment [9], 0.08. Further, the OD450 in [10] and in [11] was 0.06 throughout.

B7: S008-NB148-77 (Fc fusion)
chain: EVQVVESGGGLVQAGGSLRLSCVASGFDFSDSVMGWYRQAPGKQREAVAIISSVGQSNYRDSVQGRFTVSRSNTENTMYLQMDSLKPEDTAIYYCKKFGPGEYWGQGTQVTVSS[human IgG1 Fc with changes not shown]
notes: as for B5
Consider B7, for which the OD450 with Her2 protein [12] was found to be 0.12; with Her2 protein [13], 0.13; with Her2 protein [14], 0.12; with Her2 protein [15] it was 0.18; with Her2 protein [16], 0.11; with Her2 protein [17] it was 0.12. For the same molecule, the OD450 was 0.12 with Her2 protein [18] and 0.11 with Her2 protein [19]. Further, the Kd with human EGFR protein [20] turned out to be 19.6 nM; in the experiment with monkey EGFR protein, 1.74 nM; with murine EGFR protein, 12.1 nM; in [21] it was 9.91 nM. Besides, the koff was determined as 18 s⁻¹ with human EGFR protein [20], 0.000446 s⁻¹ in the experiment with monkey EGFR protein, 3.5 s⁻¹ in the experiment with murine EGFR protein and 0.00188 s⁻¹ in experiment [21]. The kon was found to be 9.18e+08 M⁻¹ s⁻¹ in the experiment with human EGFR protein [20], 256000 M⁻¹ s⁻¹ with monkey EGFR protein and 190000 M⁻¹ s⁻¹ in [21]. In the experiment with human EGFR protein [22], this molecule came in with an EC80 of 46.2 µg/mL.

B8: S008-NB148-8 VHH-Fc antibody (Fc fusion)
chain: EVQLVESGGGLVQAGGSLRLSCVVSGSTFSSYAMGWYRQAPGKQRELVAAISSGVSANVADSLKGRFAISRDNAKNAVYLQMNSLKPEDTAVYYCNTLPRSMPYWGKGTLVTVSS[human IgG1 Fc with changes not shown]
notes: as for B1
As for B8, the results for the Max_MFI in [1] and in experiment [8] were 15300 and 8910, respectively. Moreover, in experiment [2], the EC50 worked out at 2.18 nM. The “Max MFI” value in [2] worked out at 12900. Besides, the OD450 in experiment [3] came out at 2.16; in experiment [4], 2.39; in [5], 1.81; in experiment [6], 2.54; in experiment [7] it was 0.61; in experiment [9] it was 0.13. The OD450 in experiment [10] and in [11] was 0.06 each time.
